Test results as given in the supplement of paper PMC9151546.
Single values are uncertain, as repeats are few or missing.

Assays:
CHO-K1 [1] = assay: relative survival (nuclei to bead ratio vs DMSO control) (% of vehicle control); higher = more surviving cells
CHO-K1 [2] = assay: micronucleus frequency (% of nucleated events); higher = more micronuclei (genotoxic)
CHO-K1 [3] = assay: hypodiploid nuclei frequency (% of nucleated events); higher = more hypodiploid events (aneugenic)
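Throughout, for hypodiploid nuclei frequency (% of nucleated events): hypodiploid nuclei gated on a flow cytometer with 488 nm excitation after SYTOX Green staining, cultures at 37 °C, positive controls vinblastine without S9 and cyclophosphamide with S9.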
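Throughout, for micronucleus frequency (% of nucleated events): cells lysed with nuclei stained by SYTOX Green, then micronucleus-gated events counted against nucleated events by flow cytometry with 488 nm excitation.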
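Throughout, for relative survival (nuclei to bead ratio vs DMSO control): Lysed-cell nuclei stained with SYTOX Green and counted against counting beads by flow cytometry at 488 nm excitation, with vinblastine (no S9) and cyclophosphamide (plus S9) as positive controls.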

O=c1n(CC2CO2)c(=O)n(CC2CO2)c(=O)n1CC1CO1 (stereo unspecified) [Triglycidyl isocyanurate]
Details	hypodiploid nuclei frequency, CHO-K1 [3] [%]	micronucleus frequency, CHO-K1 [2] [%]	relative survival, CHO-K1 [1]
concentration: 4.5 (µM), S9 metabolic activation: with S9, exposure time: 3-4 hours	0.24	1.9	99.8
concentration: 4.5 (µM), S9 metabolic activation: without S9, exposure time: 24 hours	0.82	13.1	71.6
concentration: 5.63 (µM), S9 metabolic activation: with S9, exposure time: 3-4 hours	0.32	2.92	104
concentration: 5.63 (µM), S9 metabolic activation: without S9, exposure time: 24 hours	1.32	14.2	64.7
concentration: 7.04 (µM), S9 metabolic activation: with S9, exposure time: 3-4 hours	0.22	2.6	114
concentration: 7.04 (µM), S9 metabolic activation: without S9, exposure time: 24 hours	1.06	14.4	64.9
concentration: 8.8 (µM), S9 metabolic activation: with S9, exposure time: 3-4 hours	0.34	2.78	116
concentration: 8.8 (µM), S9 metabolic activation: without S9, exposure time: 24 hours	0.96	16.9	66.7
concentration: 11 (µM), S9 metabolic activation: with S9, exposure time: 3-4 hours	0.2	2.72	95.1
concentration: 11 (µM), S9 metabolic activation: without S9, exposure time: 24 hours	1.18	18.9	59.7
concentration: 13.7 (µM), S9 metabolic activation: with S9, exposure time: 3-4 hours	0.24	4.6	116
concentration: 13.7 (µM), S9 metabolic activation: without S9, exposure time: 24 hours	1.08	17.9	62.4
concentration: 17.2 (µM), S9 metabolic activation: with S9, exposure time: 3-4 hours	0.3	4.32	103
concentration: 17.2 (µM), S9 metabolic activation: without S9, exposure time: 24 hours	0.94	20.6	73.8
concentration: 21.5 (µM), S9 metabolic activation: with S9, exposure time: 3-4 hours	0.12	4.06	122
concentration: 21.5 (µM), S9 metabolic activation: without S9, exposure time: 24 hours	1.06	18.6	54
concentration: 26.8 (µM), S9 metabolic activation: with S9, exposure time: 3-4 hours	0.44	6.28	74.1
concentration: 26.8 (µM), S9 metabolic activation: without S9, exposure time: 24 hours	1.92	23.5	60.1
concentration: 33.6 (µM), S9 metabolic activation: with S9, exposure time: 3-4 hours	0.28	5.72	93.5
concentration: 33.6 (µM), S9 metabolic activation: without S9, exposure time: 24 hours	2.16	24.6	69
concentration: 41.9 (µM), S9 metabolic activation: with S9, exposure time: 3-4 hours	0.34	7.36	67
concentration: 41.9 (µM), S9 metabolic activation: without S9, exposure time: 24 hours	3.16	23.4	43.9
concentration: 52.4 (µM), S9 metabolic activation: with S9, exposure time: 3-4 hours	0.38	7.74	69.5
concentration: 52.4 (µM), S9 metabolic activation: without S9, exposure time: 24 hours	3.94	21.2	55
concentration: 65.5 (µM), S9 metabolic activation: with S9, exposure time: 3-4 hours	0.52	11.4	61.2
concentration: 65.5 (µM), S9 metabolic activation: without S9, exposure time: 24 hours	6.56	25.5	43.5
concentration: 81.9 (µM), S9 metabolic activation: with S9, exposure time: 3-4 hours	0.58	11.5	64.6
concentration: 81.9 (µM), S9 metabolic activation: without S9, exposure time: 24 hours	7.46	27.8	49.1
concentration: 102 (µM), S9 metabolic activation: with S9, exposure time: 3-4 hours	0.64	14.5	48.6
concentration: 102 (µM), S9 metabolic activation: without S9, exposure time: 24 hours	6.16	28.5	50.1
concentration: 128 (µM), S9 metabolic activation: with S9, exposure time: 3-4 hours	1.14	15	48.8
concentration: 128 (µM), S9 metabolic activation: without S9, exposure time: 24 hours	4.56	19.6	53.9
concentration: 160 (µM), S9 metabolic activation: with S9, exposure time: 3-4 hours	1.32	15.4	54.6
concentration: 160 (µM), S9 metabolic activation: without S9, exposure time: 24 hours	2.22	11.5	41.7
concentration: 200 (µM), S9 metabolic activation: with S9, exposure time: 3-4 hours	1.9	13.4	49.9
concentration: 200 (µM), S9 metabolic activation: without S9, exposure time: 24 hours	–	–	28.1

O=P(OCCCl)(OCCCl)OCCCl [Tris(2-chloroethyl) phosphate]
Details	hypodiploid nuclei frequency, CHO-K1 [3] [%]	micronucleus frequency, CHO-K1 [2] [%]	relative survival, CHO-K1 [1]
concentration: 4.5 (µM), S9 metabolic activation: with S9, exposure time: 3-4 hours	0.3	1.98	141
concentration: 4.5 (µM), S9 metabolic activation: without S9, exposure time: 24 hours	0.48	1.8	80.3
concentration: 5.63 (µM), S9 metabolic activation: with S9, exposure time: 3-4 hours	0.2	1.16	128
concentration: 5.63 (µM), S9 metabolic activation: without S9, exposure time: 24 hours	0.6	2.32	82.6
concentration: 7.04 (µM), S9 metabolic activation: with S9, exposure time: 3-4 hours	0.26	1.3	133
concentration: 7.04 (µM), S9 metabolic activation: without S9, exposure time: 24 hours	0.64	1.66	96.3
concentration: 8.8 (µM), S9 metabolic activation: with S9, exposure time: 3-4 hours	0.18	1.28	121
concentration: 8.8 (µM), S9 metabolic activation: without S9, exposure time: 24 hours	0.66	1.56	80
concentration: 11 (µM), S9 metabolic activation: with S9, exposure time: 3-4 hours	0.14	1.46	124
concentration: 11 (µM), S9 metabolic activation: without S9, exposure time: 24 hours	0.62	1.6	111
concentration: 13.7 (µM), S9 metabolic activation: with S9, exposure time: 3-4 hours	0.18	1.3	141
concentration: 13.7 (µM), S9 metabolic activation: without S9, exposure time: 24 hours	0.46	1.48	86.6
concentration: 17.2 (µM), S9 metabolic activation: with S9, exposure time: 3-4 hours	0.28	0.92	120
concentration: 17.2 (µM), S9 metabolic activation: without S9, exposure time: 24 hours	0.56	1.2	85.8
concentration: 21.5 (µM), S9 metabolic activation: with S9, exposure time: 3-4 hours	0.38	1.54	139
concentration: 21.5 (µM), S9 metabolic activation: without S9, exposure time: 24 hours	0.56	1.6	63.5
concentration: 26.8 (µM), S9 metabolic activation: with S9, exposure time: 3-4 hours	0.34	1.46	132
concentration: 26.8 (µM), S9 metabolic activation: without S9, exposure time: 24 hours	0.52	2.76	71.6
concentration: 33.6 (µM), S9 metabolic activation: with S9, exposure time: 3-4 hours	0.2	1.42	110
concentration: 33.6 (µM), S9 metabolic activation: without S9, exposure time: 24 hours	0.6	1.88	45.2
concentration: 41.9 (µM), S9 metabolic activation: with S9, exposure time: 3-4 hours	0.2	0.98	116
concentration: 41.9 (µM), S9 metabolic activation: without S9, exposure time: 24 hours	0.96	2.2	60.1
concentration: 52.4 (µM), S9 metabolic activation: with S9, exposure time: 3-4 hours	0.16	0.82	90.9
concentration: 52.4 (µM), S9 metabolic activation: without S9, exposure time: 24 hours	0.4	1.36	56.5
concentration: 65.5 (µM), S9 metabolic activation: with S9, exposure time: 3-4 hours	0.18	1.2	81.3
concentration: 65.5 (µM), S9 metabolic activation: without S9, exposure time: 24 hours	0.52	1.88	46.9
concentration: 81.9 (µM), S9 metabolic activation: with S9, exposure time: 3-4 hours	0.24	1.26	101
concentration: 81.9 (µM), S9 metabolic activation: without S9, exposure time: 24 hours	0.88	1.54	54.5
concentration: 102 (µM), S9 metabolic activation: with S9, exposure time: 3-4 hours	0.32	0.76	88.2
concentration: 102 (µM), S9 metabolic activation: without S9, exposure time: 24 hours	0.68	1.72	71.1
concentration: 128 (µM), S9 metabolic activation: with S9, exposure time: 3-4 hours	0.18	0.92	75.3
concentration: 128 (µM), S9 metabolic activation: without S9, exposure time: 24 hours	0.82	2.26	50
concentration: 160 (µM), S9 metabolic activation: with S9, exposure time: 3-4 hours	0.12	1.24	80.4
concentration: 160 (µM), S9 metabolic activation: without S9, exposure time: 24 hours	0.9	2.06	40.8
concentration: 200 (µM), S9 metabolic activation: with S9, exposure time: 3-4 hours	0.22	0.7	77.4
concentration: 200 (µM), S9 metabolic activation: without S9, exposure time: 24 hours	1.22	1.78	42.6

Cc1c(C)c2c(c(C)c1O)CCC(C)(COc1ccc(CC3SC(=O)NC3=O)cc1)O2 (stereo unspecified) [Troglitazone]
Details	hypodiploid nuclei frequency, CHO-K1 [3] [%]	micronucleus frequency, CHO-K1 [2] [%]	relative survival, CHO-K1 [1]
concentration: 4.5 (µM), S9 metabolic activation: with S9, exposure time: 3-4 hours	0.34	1.54	135
concentration: 4.5 (µM), S9 metabolic activation: without S9, exposure time: 24 hours	0.66	2.36	121
concentration: 5.63 (µM), S9 metabolic activation: with S9, exposure time: 3-4 hours	0.3	1.92	155
concentration: 5.63 (µM), S9 metabolic activation: without S9, exposure time: 24 hours	0.32	2.18	132
concentration: 7.04 (µM), S9 metabolic activation: with S9, exposure time: 3-4 hours	0.34	1.52	136
concentration: 7.04 (µM), S9 metabolic activation: without S9, exposure time: 24 hours	0.6	1.58	113
concentration: 8.8 (µM), S9 metabolic activation: with S9, exposure time: 3-4 hours	0.34	1.58	125
concentration: 8.8 (µM), S9 metabolic activation: without S9, exposure time: 24 hours	0.7	2.22	112
concentration: 11 (µM), S9 metabolic activation: with S9, exposure time: 3-4 hours	0.1	1.56	134
concentration: 11 (µM), S9 metabolic activation: without S9, exposure time: 24 hours	0.6	2.4	120
concentration: 13.7 (µM), S9 metabolic activation: with S9, exposure time: 3-4 hours	0.2	2.22	134
concentration: 13.7 (µM), S9 metabolic activation: without S9, exposure time: 24 hours	0.78	1.88	104
concentration: 17.2 (µM), S9 metabolic activation: with S9, exposure time: 3-4 hours	0.28	1.52	121
concentration: 17.2 (µM), S9 metabolic activation: without S9, exposure time: 24 hours	0.82	2.88	95.1
concentration: 21.5 (µM), S9 metabolic activation: with S9, exposure time: 3-4 hours	0.2	1.48	127
concentration: 21.5 (µM), S9 metabolic activation: without S9, exposure time: 24 hours	0.98	3.7	91.8
concentration: 26.8 (µM), S9 metabolic activation: with S9, exposure time: 3-4 hours	0.16	1.84	125
concentration: 26.8 (µM), S9 metabolic activation: without S9, exposure time: 24 hours	0.98	2.96	79.7
concentration: 33.6 (µM), S9 metabolic activation: with S9, exposure time: 3-4 hours	0.52	2.58	127
concentration: 33.6 (µM), S9 metabolic activation: without S9, exposure time: 24 hours	1.22	2.88	76
concentration: 41.9 (µM), S9 metabolic activation: with S9, exposure time: 3-4 hours	0.34	1.56	114
concentration: 41.9 (µM), S9 metabolic activation: without S9, exposure time: 24 hours	1.06	2.7	76.5
concentration: 52.4 (µM), S9 metabolic activation: with S9, exposure time: 3-4 hours	0.36	1.96	137
concentration: 52.4 (µM), S9 metabolic activation: without S9, exposure time: 24 hours	1.14	2.82	66.2
concentration: 65.5 (µM), S9 metabolic activation: with S9, exposure time: 3-4 hours	0.28	1.92	113
concentration: 65.5 (µM), S9 metabolic activation: without S9, exposure time: 24 hours	1.34	3.68	65.6
concentration: 81.9 (µM), S9 metabolic activation: with S9, exposure time: 3-4 hours	0.32	2.4	115
concentration: 81.9 (µM), S9 metabolic activation: without S9, exposure time: 24 hours	1.06	3.62	62
concentration: 102 (µM), S9 metabolic activation: with S9, exposure time: 3-4 hours	–	–	36.1
concentration: 102 (µM), S9 metabolic activation: without S9, exposure time: 24 hours	0.84	2.18	57.9
concentration: 128 (µM), S9 metabolic activation: with S9, exposure time: 3-4 hours	–	–	13
concentration: 128 (µM), S9 metabolic activation: without S9, exposure time: 24 hours	0.92	2.36	47.1
concentration: 160 (µM), S9 metabolic activation: without S9, exposure time: 24 hours	1.06	2.28	41.4
concentration: 200 (µM), S9 metabolic activation: with S9, exposure time: 3-4 hours	–	–	0.2
concentration: 200 (µM), S9 metabolic activation: without S9, exposure time: 24 hours	–	–	33.9
